In the assay the test system is Antigen-specific CD8 T cells (SIV-Gag AL11). As to the kind of experiment: Antigen-specific CD8 T cells by ICS, vector prime and synthetic long peptide boost (Example 11). Format: in vivo, C57BL/6 mice. As to conditions: prime with lentivector encoding full length immunogen, boost d21 with fragment plus GLA-SE, compared to boost with the same lentivector.

We go through one sequence from patent publication US9044420B2, “Immunogenic compositions and methods of using the compositions for inducing humoral and cellular immune responses” (IMMUNE DESIGN CORP., priority 2011, dated 2015).

On to “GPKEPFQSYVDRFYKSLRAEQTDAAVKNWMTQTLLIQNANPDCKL (GLA-SE adjuvant) [45-amino acid immunogen fragment]”, for which the “CD8 T cell response after boost” value is on record as “enhanced CD8 T cell response”.
